{"source": "PubChem BioAssay AID624296", "about": "(National Center for Advancing Translational Sciences (NCATS), 2012)", "note": "The whole screen tested about 350,000 compounds, of which about 9,900 (2.8%) were called active. Inconclusive results, whose numbers are uncertain, are shown with a selection of clear calls. Calls come from the whole dose curve; as a rule, active = well fitted activation curve with a large enough effect; inconclusive = small, poorly fitted or top-dose-only effect; inactive = no such curve, though single readings can be large or run the other way. No potency is given beside an inconclusive call; the fits are too rough. Potency is the fitted concentration of half-maximal effect; tags give direction and shape of the fitted curve.", "data": [{"assay": "A quantitative high throughput screen for small molecules that induce DNA re-replication in MCF 10a normal breast cells; note: nearly all actives have a fitted effect of over 50% in size; for activity, positive = re-replication: % of control where 0% means no effect.", "details": "MCF 10A DNA re-replication, Hoechst nuclear intensity, 48 h; activity, positive = re-replication: at 46.1 µM (top of the series)", "values": [{"smiles": "COc1ccc(CCNC(=O)c2cc([N+](=O)[O-])ccc2N2CCOCC2)cc1", "Potency": "inconclusive [activator, single point]"}, {"smiles": "Cc1ccnc(N2C(=O)c3ccccc3C2=O)c1", "activity, positive = re-replication": "inactive: -2.17%"}, {"smiles": "CC(Oc1ccc(F)cc1)C(=O)Nc1ccc2ccccc2c1", "note": "(centres undefined)", "Potency": "inconclusive [activator, full curve, poor fit]"}, {"smiles": "O=C1C=CC(=O)N1c1ccc2c(c1)Cc1cc(F)ccc1-2", "Potency": "inconclusive [activator, single point]"}, {"smiles": "COc1ccc(/C=C/c2nc(S(=O)(=O)c3ccccc3)c(NCCCN(C)C)o2)cc1OC", "Potency": "inconclusive [activator, single point]"}, {"smiles": "CCC(=O)Oc1ccc(-c2cnc3ccccc3n2)cc1", "Potency": "inconclusive [activator, partial curve, poor fit]"}, {"smiles": "COc1ccc2ccccc2c1/C=N/Nc1ccc(Cl)c(C(=O)O)c1", "Potency": "inconclusive [activator, single point]"}, {"smiles": "CCCCNC(=O)CSc1nc(Cc2ccccc2)nc2ccccc12", "Potency": "inconclusive [activator, partial curve, poor fit]"}, {"smiles": "CCCc1cc(N2CCN(C(=O)c3ccco3)CC2)n2c(nc3ccccc32)c1C#N", "Potency": "active: 20.6 µM"}, {"smiles": "O=C(C[n+]1ccc(C(=O)c2ccccc2)cc1)Nc1ccc(C(F)(F)F)cc1", "Potency": "inconclusive [activator, single point]"}, {"smiles": "S=c1[nH]nc(-c2ccco2)n1/N=C/c1ccc(Cl)cc1Cl", "Potency": "inconclusive [activator, single point]"}, {"smiles": "S=C1NC[C@H](Cc2ccccc2)N1CC1CCN(CCCC2CCCC2)CC1", "Potency": "inconclusive [activator, partial curve, poor fit]"}, {"smiles": "COc1ccc(CCNC(=O)/C=C/c2ccc3ccccc3n2)cc1OC", "Potency": "active: 16.4 µM"}, {"smiles": "Cn1cc(CNCc2cn[nH]c2-c2ccc(F)cc2)c(-c2ccc3c(c2)OCCO3)n1", "activity, positive = re-replication": "inactive: -7.15%"}, {"smiles": "COC(c1ccccc1)(c1ccccc1)C(Oc1nc(C)cc(C)n1)C(=O)O", "note": "(centres undefined)", "Potency": "inconclusive [activator, single point]"}, {"smiles": "COc1ccccc1NC(=O)N1CCCC1C(=O)NCc1ccc(F)cc1", "note": "(centres undefined)", "activity, positive = re-replication": "inactive: 3.47%"}, {"smiles": "Cc1cc(NC(=O)CSc2nc(-c3ccco3)cc(C(F)(F)F)n2)no1", "Potency": "active: 3.26 µM"}, {"smiles": "COc1cccc(NC(=S)NCc2ccccn2)c1", "Potency": "inconclusive [activator, single point]"}, {"smiles": "CC(C)[C@H](NC(=O)NC1CCCc2ccccc21)C(=O)O", "note": "(some centres undefined)", "Potency": "inconclusive [activator, single point]"}, {"smiles": "COC(=O)c1ccc(CNC(=O)Cn2cnc(C(=O)Nc3ccc(C)c(C)c3)n2)cc1", "Potency": "inconclusive [activator, single point]"}, {"smiles": "CC(C)CN1CN(Cc2ccco2)CNC1=S", "activity, positive = re-replication": "inactive: 1.36%"}, {"smiles": "O=C(NC1CCCc2ccccc21)C1CCN(c2nnc(-n3cccc3)s2)CC1", "note": "(centres undefined)", "Potency": "active: 16.4 µM"}, {"smiles": "CCOc1ccccc1C(=O)Nc1ccc2nc(N3CCN(c4ncccn4)CC3)cc(C)c2c1", "Potency": "active: 8.2 µM"}, {"smiles": "CCCCC(=O)NC(=S)Nc1ccc(Cl)c(C(=O)O)c1", "activity, positive = re-replication": "inactive: -31%"}, {"smiles": "O=C(Nc1nnc(Cc2ccccc2)s1)c1ccccc1", "Potency": "inconclusive [activator, partial curve, poor fit]"}, {"smiles": "COc1ccc(S(=O)(=O)N(c2onc(C)c2Cl)S(=O)(=O)c2ccc(OC)cc2)cc1", "Potency": "inconclusive [activator, partial curve, poor fit]"}, {"smiles": "CNC(=O)/C(C#N)=C/c1c(N2CCCCCC2)nc2c(C)cccn2c1=O", "activity, positive = re-replication": "inactive: 3.75%"}, {"smiles": "CCOc1ccc(NC(=O)C2C3CCC4C(CCC32)C4(Cl)Cl)cc1", "note": "(centres undefined)", "Potency": "inconclusive [activator, partial curve, poor fit]"}, {"smiles": "O=C(NCc1ccc(F)cc1)C(c1ccccc1)c1ccccc1", "activity, positive = re-replication": "inactive: 9.04%"}, {"smiles": "CCN(C(=O)CSc1nc2cc(C(=O)OC)ccc2c(=O)n1Cc1ccco1)c1cccc(C)c1", "activity, positive = re-replication": "inactive: -2.12%"}, {"smiles": "Cn1c(-c2ccccc2)cnc1NCc1cc2c(cc1[N+](=O)[O-])OCO2", "Potency": "inconclusive [activator, partial curve, poor fit]"}, {"smiles": "Cn1c(C2=C(O)CN(c3ccc4c(c3)OCCO4)C2=N)nc2ccccc21", "Potency": "inconclusive [activator, partial curve, poor fit]"}, {"smiles": "COc1ccc(N2C(=O)c3ccc(C(=O)Nc4cc(OC)ccc4OC)cc3C2=O)cc1", "activity, positive = re-replication": "inactive: 7.61%"}, {"smiles": "Cc1ccc(/C=C2/C(=O)C3(C)CCC2C3(C)C)cc1", "note": "(centres undefined)", "Potency": "inconclusive [activator, partial curve]"}, {"smiles": "CCOc1ccc2oc(C(=O)OCC(=O)NCc3ccc(OC)cc3)c(C)c2c1", "Potency": "inconclusive [activator, single point]"}, {"smiles": "CCOC(=O)c1ccc(NC(=O)CCC2COc3ccccc3O2)cc1", "note": "(centres undefined)", "Potency": "inconclusive [activator, single point]"}, {"smiles": "COC(=O)c1ccc(COc2cccc3c2CCN(Cc2ccccc2)C3=O)o1", "Potency": "inconclusive [activator, partial curve, poor fit]"}, {"smiles": "Cn1c(C(=O)NCc2ccccn2)cc2c(=O)n3ccccc3nc21", "Potency": "inconclusive [activator, full curve, poor fit]"}, {"smiles": "COC(=O)C1=C(C)N(c2ccc(C)c(C)c2)/C(=C/c2ccc(O)cc2)C1=O", "Potency": "inconclusive [activator, single point]"}, {"smiles": "CSc1ccc(/C=N/n2c(C3CCCCC3)n[nH]c2=S)cc1", "Potency": "active: 16.4 µM"}, {"smiles": "O=C(COc1ccc2ccccc2c1)NNC(=O)c1cnccn1", "Potency": "inconclusive [activator, partial curve, poor fit]"}, {"smiles": "Cc1nn(-c2ccc(C(F)(F)F)cn2)c(C)c1Oc1ccccc1O", "Potency": "inconclusive [activator, single point]"}, {"smiles": "COc1cc(NCCCNC(C)C)c2nccc(C)c2c1", "Potency": "inconclusive [activator, single point]"}, {"smiles": "CC(/C=N/n1c(-c2ccccc2)n[nH]c1=S)=C\\c1ccco1", "activity, positive = re-replication": "inactive: 3.48%"}, {"smiles": "CCc1ccc(C(=O)/C=C/Nc2ccc(S(=O)(=O)Nc3onc(C)c3C)cc2)cc1", "Potency": "active: 25.9 µM"}, {"smiles": "O=c1c(Cl)c(NCc2ccccc2)cnn1C12CC3CC(CC(C3)C1)C2", "Potency": "inconclusive [activator, partial curve]"}, {"smiles": "O=C(NCCc1ccccc1)C1CCN(S(=O)(=O)c2cccs2)CC1", "activity, positive = re-replication": "inactive: -17.6%"}, {"smiles": "O=S(=O)(c1ccccc1)c1ncc(C(F)(F)F)cc1Cl", "Potency": "active: 6.31 µM"}, {"smiles": "O=C(/C=N/O)NCCCN1CCCCCC1", "Potency": "inconclusive [activator, partial curve, poor fit]"}, {"smiles": "O=C(/C=C/c1cccs1)N1CCN(c2ccc(F)cc2)CC1", "activity, positive = re-replication": "inactive: 6.92%"}, {"smiles": "Cc1cc(OCC(=O)Nc2ccccc2N2CCCCC2)ccc1C(C)C", "Potency": "inconclusive [activator, partial curve, poor fit]"}, {"smiles": "COc1ccc(N2CCN(c3nc(NCCc4ccc(OC)c(OC)c4)nc(OC)n3)CC2)cc1", "Potency": "inconclusive [activator, partial curve, poor fit]"}, {"smiles": "O=C(NN(c1ccccc1)c1ccccc1)c1ccc([N+](=O)[O-])o1", "Potency": "inconclusive [activator, full curve, poor fit]"}, {"smiles": "CCC1(C(=O)OC)CCc2c(cc(OC)c3ccccc23)C1=O", "note": "(centres undefined)", "Potency": "inconclusive [activator, partial curve, poor fit]"}, {"smiles": "COCOc1ccc(/C=C2/Oc3cc(OCOC)cc(OCOC)c3C2=O)c(OCOC)c1", "Potency": "active: 6.51 µM"}, {"smiles": "COc1ccc(N(C(=O)c2ccco2)S(=O)(=O)c2cc(Cl)c(Cl)cc2Cl)cc1", "Potency": "inconclusive [activator, single point]"}, {"smiles": "O=S1(=O)CCN(Cc2csc(-c3cccs3)n2)CC1", "activity, positive = re-replication": "inactive: 8.11%"}, {"smiles": "CCOc1ccc(OCCC(=O)OCC(=O)N2CCN(S(=O)(=O)c3ccc(C)cc3C)CC2)cc1", "activity, positive = re-replication": "inactive: -1.12%"}, {"smiles": "O=C(NCc1ccccc1)N1CCN(c2ccc(F)cc2)CC1", "Potency": "inconclusive [activator, single point]"}, {"smiles": "CNC(=O)c1ccc(-c2nc(-c3ccccc3)cs2)cc1", "Potency": "inconclusive [activator, single point]"}, {"smiles": "Cc1ccc(/C(N)=N/OC(=O)c2cccs2)cc1", "activity, positive = re-replication": "inactive: -1.83%"}, {"smiles": "C[C@H](CO)N1C[C@H](C)[C@@H](CN(C)CC2CCCCC2)Oc2c(NC(=O)Cc3ccccc3)cccc2C1=O", "Potency": "inconclusive [activator, single point]"}, {"smiles": "O=C(CCn1c(=O)oc2ccc(Cl)cc21)NCCCN1CCOCC1", "activity, positive = re-replication": "inactive: -2.13%"}, {"smiles": "N#CCSc1nc(Nc2ccc3c(c2)OCO3)c2ccccc2n1", "Potency": "inconclusive [activator, partial curve, poor fit]"}, {"smiles": "Cc1cccc(-n2c(=O)c3c(n4cnnc24)-c2ccccc2CC32CCCCC2)c1", "Potency": "inconclusive [activator, partial curve, poor fit]"}, {"smiles": "CCC(C)(C)n1nnnc1C(c1cc2cc(C)cc(C)c2[nH]c1=O)N1CCCC1", "note": "(centres undefined)", "Potency": "inconclusive [activator, partial curve, poor fit]"}, {"smiles": "O=C(CN(C(=O)CNS(=O)(=O)c1ccc(F)cc1)C1CCCC1)NCc1ccco1", "activity, positive = re-replication": "inactive: 2.03%"}, {"smiles": "Cc1ccc(/C=C/C(=O)N2CCCN(C(=O)/C=C/c3ccc(C)cc3)CC2)cc1", "Potency": "inconclusive [activator, single point]"}, {"smiles": "O=C(Cc1ccccc1)N/N=C/c1cccc([N+](=O)[O-])c1", "Potency": "inconclusive [activator, single point]"}]}]}
